{
  "source": "the supplement of paper PMC9446081",
  "note": "About 220 (0.56%) of roughly 39,000 compounds showed activity. Some of the results follow.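 Further: static incubation at 37 °C against the wild-type strain, values averaged over two biological replicates.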",
  "data": [
    {"system": "Escherichia coli K-12 BW25113", "experiment": "relative growth (OD600 normalised to plate interquartile mean) (fraction); higher = less growth inhibition, active = 0.2 or less", "details": "50 µM; LB; incubation time: overnight (16-24 h)", "values": [
      {"smiles": "CC(=O)O.Cc1cc2c(C(C)C)c(O)c(O)c(C=O)c2c(O)c1-c1c(C)cc2c(C(C)C)c(O)c(O)c(C=O)c2c1O", "relative growth": "inactive: 1.02"},
      {"smiles": "Cc1cc(C(C#N)c2ccc(Cl)cc2)c(Cl)cc1NC(=O)c1cc(I)cc(I)c1O", "note": "(stereo not drawn)", "relative growth": "inactive: 0.644"},
      {"smiles": "CCN(CC)C1CCCCC1", "relative growth": "inactive: 1.01"},
      {"smiles": "CC(C)(C)NCC(O)c1cc(Cl)c(N)c(Cl)c1.Cl", "note": "(stereo not drawn)", "relative growth": "inactive: 1.08"},
      {"smiles": "C[C@@]1(O)[C@H](O)[C@@H](CO)O[C@H]1n1ccc2c(N)ncnc21", "relative growth": "inactive: 0.994"},
      {"smiles": "O=C1C=C2C=CC3CC2(O1)C1CCCCN31", "note": "(stereo not drawn)", "relative growth": "inactive: 1.03"},
      {"smiles": "CNCCc1cnc[nH]1", "relative growth": "inactive: 1"},
      {"smiles": "Br.CN1C2CC(OC(=O)C(CO)c3ccccc3)CC1C1OC12", "note": "(stereo not drawn)", "relative growth": "inactive: 0.941"},
      {"smiles": "CC[C@@H](N)[C@@H](O)c1ccc(O)c(O)c1", "relative growth": "inactive: 0.971"},
      {"smiles": "Cn1cc(N2C[C@@H]3CNC[C@@H]3C2=O)cn1", "relative growth": "inactive: 1.01"},
      {"smiles": "COc1cc2c(c(OC)c1OC)-c1ccc(O)c(=O)cc1C(NC(C)=O)CC2", "note": "(stereo not drawn)", "relative growth": "inactive: 1.03"},
      {"smiles": "CCn1cnc2c(Nc3cccc(Cl)c3)nc(N[C@@H]3CCCC[C@@H]3N)nc21", "relative growth": "inactive: 0.943"},
      {"smiles": "COC(=O)CC1=C(C(=O)OC)[C@]2(C(=O)Nc3ccccc32)C(C(=O)OC)C(=N)O1", "note": "(stereo partly drawn)", "relative growth": "inactive: 1"},
      {"smiles": "COc1ccc(CCN)cc1OC", "relative growth": "inactive: 0.997"},
      {"smiles": "O=C(CBr)N1CC([N+](=O)[O-])([N+](=O)[O-])C1", "relative growth": "inactive: 0.922"},
      {"smiles": "Nc1ccc2c(c1)CNCC2", "relative growth": "inactive: 1.02"},
      {"smiles": "OC[C@@H]1[C@@H](O)[C@H](O)[C@H]2[C@@H](O)CCN21", "relative growth": "inactive: 0.997"},
      {"smiles": "CC(C)C[C@H](NC(=O)[C@H](CO)NC(=O)CNC(=O)[C@H](CC(C)C)NC(=O)[C@H](CCC(=O)O)NC(=O)[C@H](Cc1ccc(O)cc1)NC(=O)[C@H](CO)NC(=O)[C@H](CC(N)=O)NC(=O)[C@H](Cc1ccccc1)NC(=O)[C@H](CO)NC(=O)[C@@H](N)CSSC[C@H](N)C(=O)N[C@@H](Cc1ccc(O)cc1)C(=O)NCC(=O)N[C@@H](CCCNC(=N)N)C(=O)N[C@@H](CCCCN)C(=O)N[C@@H](CCCCN)C(=O)N[C@@H](CCCNC(=N)N)C(=O)N[C@@H](CCCNC(=N)N)C(=O)N[C@@H](CCC(N)=O)C(=O)N[C@@H](CCCNC(=N)N)C(=O)N[C@@H](CCCNC(=N)N)C(=O)N[C@@H](CCCNC(=N)N)C(=O)O)C(=O)O", "relative growth": "inactive: 0.972"},
      {"smiles": "O=C1NC(=S)NC(=O)C1=Cc1ccccc1", "relative growth": "inactive: 1"},
      {"smiles": "COc1ccc(C(CN(C)C)C2(O)CCCCC2)cc1.Cl", "note": "(stereo not drawn)", "relative growth": "inactive: 1.14"},
      {"smiles": "C[C@H](CO)N1C[C@H](C)[C@H](CN(C)C(=O)Oc2ccccc2)OCc2ccccc2-c2c(n(C)c3ccccc23)C1=O", "relative growth": "inactive: 0.99"},
      {"smiles": "CC(=O)Nc1ccc(CCN)cc1", "relative growth": "inactive: 1"},
      {"smiles": "O=C(O)/C=C/CO", "relative growth": "inactive: 1.01"},
      {"smiles": "NC[C@H]1CCCc2ccc(Cl)cc21", "relative growth": "inactive: 0.899"},
      {"smiles": "CC(C)c1cc2c(c(O)c1O)C1(C(=O)O)CCCC(C)(C)C1CC2", "note": "(stereo not drawn)", "relative growth": "inactive: 0.861"},
      {"smiles": "Cc1ccc(OC(=O)N(C)C[C@@H]2OCc3ccccc3-c3c(n(C)c4ccccc34)C(=O)N([C@H](C)CO)C[C@H]2C)cc1", "relative growth": "inactive: 1.01"},
      {"smiles": "c1cnc(N[C@@H]2CO[C@@]3(CCNC3)C2)cn1", "relative growth": "inactive: 1.01"},
      {"smiles": "COC(=O)[C@@]1(Cc2ccccc2CN=[N+]=[N-])N=C(c2ccc(OCCCO)cc2)O[C@H]1c1ccccc1N=[N+]=[N-]", "relative growth": "inactive: 1.01"},
      {"smiles": "CCC(C)C(=O)OC1CC2(C)C(c3ccoc3)OC(=O)CC23OC2(C)OC34C(OC(=O)C(C)C)C3(O)C(OC(=O)C5(C)OC5C)C5(C)CC3(O)C(C)(C5CC(=O)OC)C14O2", "note": "(stereo not drawn)", "relative growth": "inactive: 0.982"},
      {"smiles": "C=CCc1cc(OC)c2c(c1OC)OCO2", "relative growth": "inactive: 0.99"},
      {"smiles": "C[N+](C)(C)C[C@H]1CCC[C@@H]1O", "relative growth": "inactive: 0.98"},
      {"smiles": "c1cncc(N2CCNCC2)c1", "relative growth": "inactive: 1.02"},
      {"smiles": "CC(C)c1csc(CCN)n1", "relative growth": "inactive: 0.964"},
      {"smiles": "Oc1ccccc1N1CCNCC1", "relative growth": "inactive: 1.04"},
      {"smiles": "O=C1C2CCN(CC2)C1(CO)CO", "relative growth": "inactive: 0.938"},
      {"smiles": "C1COC2(CCNCC2)OC1", "relative growth": "inactive: 1.03"},
      {"smiles": "Cc1cc(N2CCN(C)CC2)ncn1", "relative growth": "inactive: 1.02"},
      {"smiles": "CCC1(C2OC(C3OC(O)(CO)C(C)CC3C)CC2C)CCC(C2(C)CCC3(CC(O)C(C)C(C(C)C(OC)C(C)C(=O)[O-])O3)O2)O1.[Na+]", "note": "(stereo not drawn)", "relative growth": "inactive: 0.973"},
      {"smiles": "COC(=O)C1(O)C[C@H]2CC[C@@H](C1)N2C", "note": "(stereo partly drawn)", "relative growth": "inactive: 0.996"},
      {"smiles": "COc1cc2ccc(=O)oc2c2ccoc12", "relative growth": "inactive: 1.05"},
      {"smiles": "NCC1(CC(=O)O)CCCCC1", "relative growth": "inactive: 0.872"},
      {"smiles": "C=CCc1ccc(OC)cc1", "relative growth": "inactive: 0.903"},
      {"smiles": "COc1cc2c(cc1OC)C13CCN4CC5=CCOC6CC(=O)N2C1C6C5CC43", "note": "(stereo not drawn)", "relative growth": "inactive: 1.05"},
      {"smiles": "C[C@@H]1CN([C@@H](C)CO)C(=O)CCCn2nncc2CO[C@@H]1CN(C)C(=O)Oc1ccc2ccccc2c1", "relative growth": "inactive: 0.993"},
      {"smiles": "COc1cccc(C=O)c1OC", "relative growth": "inactive: 1.01"},
      {"smiles": "COc1ccc(OC(=O)N(C)C[C@H]2OCc3ccccc3-c3c(n(C)c4ccccc34)C(=O)N([C@@H](C)CO)C[C@H]2C)cc1", "relative growth": "inactive: 1.02"},
      {"smiles": "O=C(NC[C@H]1CC[C@]2(CNCCOC2)O1)c1ccnnc1", "relative growth": "inactive: 0.971"},
      {"smiles": "O=C(O)[C@H]1N[C@H]2CC[C@@H]1C2", "relative growth": "inactive: 1.01"},
      {"smiles": "COc1ccc2cc(CCN)c(=O)[nH]c2c1", "relative growth": "inactive: 1.01"},
      {"smiles": "CN1C[C@@H](C(=O)O)CN2CCN(C(=O)c3ccncc3F)C[C@@H]2C1", "relative growth": "inactive: 1.07"},
      {"smiles": "NCCc1cccc2ccccc12", "relative growth": "inactive: 1"},
      {"smiles": "COC(=O)[C@@H]1C(=O)NC[C@H]1C(C)C", "relative growth": "inactive: 0.99"},
      {"smiles": "COc1cc(C=O)cc(OC)c1OC", "relative growth": "inactive: 1.04"},
      {"smiles": "CN1CCc2cc3c(cc2[C@@H]1O)OCO3", "relative growth": "inactive: 1"},
      {"smiles": "CCOC(=O)c1cncn1C(C)c1ccccc1", "note": "(stereo not drawn)", "relative growth": "inactive: 0.991"},
      {"smiles": "CNC(=O)Oc1cccc2ccccc12", "relative growth": "inactive: 1.05"},
      {"smiles": "COC1=CC(=O)OC(C=Cc2ccccc2)C1", "note": "(stereo not drawn)", "relative growth": "inactive: 1.04"},
      {"smiles": "CC(C)CCC[C@]1(C)C=Cc2c(O)c3c(c(CCC(C)C)c2O1)O[C@]12[C@H](C[C@@H]4C[C@H]1C(C)(C)O[C@]2(CC[C@@H](C)C(=O)O)[C@@H]4O)C3=O", "relative growth": "inactive: 0.905"}
    ]}
  ]
}
